Source: US11078245B2, “Colon and pancreas cancer peptidomimetics” (PRECISION BIOLOGICS, INC., priority 2010, dated 2021)

Tested on: CFPAC1 cells
Experiment: NEO-101-coupled Dynal beads rosette assay
Type: cell-based, human
Conditions: antibody-coupled Dynal beads with TBS, no M13 clone
Method: The M13 clones identified by the biopanning were also immunoassayed using magnetic beads. Aliquots of 5 μl M13 phage (10^11/10 μl) were mixed with 10 μl NEO-101-coupled Dynal® beads at RT for 20 min on a rotator. CFPAC1 cells (30 μl of 10^6 cells/ml) were added and incubated at 4° C. for 30 min. Rosetted cells were counted (>8 beads/cell).

B1: H16C3: antibody coupled to Dynal beads, specificity control (antibody)
heavy: QVQLVQSGAEVKKPGASVKVSCKASGYTFTDYAMHWVRQAPGQRLEWMGLISTYSGDTKYNQNFQGRVTMTVDKSASTAYMELSSLRSEDTAVYYCARGDYSGSRYWFAYWGQGTLVTVSS[omitted - human IgG1 constant region]
light: DIQMTQSPSSLSASVGDRVTITCQASENIYGALNWYQRKPGKSPKLLIYGASNLATGMPSRFSGSGSGTDYTFTISSLQPEDIATYYCQQVLSSPYTFGGGTKLEIKRTVAAPSVFIFPPSDEQLKSGTASVVCLLNNFYPREAKVQWKVDNALQSGNSQESVTEQDSKDSTYSLSSTLTLSKADYEKHKVYACEVTHQGLSSPVTKSFNRGEC
- Positive rosette cells (%): 60%
